Assays:
[1] = test system: JH109 primary patient derived xenograft of pancreatic cancer; assay: JH109 primary patient derived xenograft tumor growth; assay type: in vivo, mice
Excerpt: The JH109 xenograft model is from a patient that had received four treatment regimens including 5-FU, Gemcitabine, Erbitux and radiotherapy. The original patient tumor has been passaged in immune-deficient mice continuously without any exposure to in vitro culture. […] Three mice treated with the 18G7H7A3 chemotherapy combination had complete eradication of their tumor (no measureable tumor detected).

[2] = test system: CT1 tumors gene expression; assay: Gene array hybridization of CT1 tumors at day-3; assay type: in vivo, mice
Excerpt: Expression of 18G7H6A3-targeted genes were investigated in early vs. late tumorigenesis. […] Total RNA from each tumor at day-3 was harvested and prepared for gene array hybridization using Illumina human chips.

[3] = test system: LGR5 expression in JH109, ASPC1 and PANC1 tumors; assay: QPCR of LGR5 expression in treated pancreatic tumors; assay type: in vivo, mice; settings: combination of 18G7H6A3 and SOC
Method: LGR5 expression in metastatic pancreatic patient derived xenografts was investigated using the quantitative polymerase chain reaction (QPCR). A sample of tumor tissue was flash frozen or added to a cryovial containing RNAlater (Qiagen, CA), and transferred to −70° C. after incubation at 4° C. for several hours. Total RNA was extracted using a Qiagen RNeasy extraction kit (Qiagen, CA), and cDNA was synthesized using a SuperScriptIII kit (Life Technologies, CA) and protocols provided by the manufacturer. Human LGR5 transcript abundance was measured using human specific LGR5 and GAPDH primers and the following thermal condition in the StepOne Thermocycler (Life Technologies, CA): 50° C. (2 min); 90° C. (2 min) and 40 cycles of 90° C. (15 sec) and 60° C. (1 min) and melt curve assessment (from 65° C.-95° C.). LGR5 abundance was quantified using 2^δCt equation.
LGR5 expression was investigated in a series of pancreatic tumors including JH109, ASPC1 and PANC1.

MDA-MB-231-LM3 model = assay: MDA-MB-231-LM3 paclitaxel combination and limiting dilution re-implant; assay type: in vivo, CB.17 SCID mice
Excerpt: These tumors were harvested, dissociated, pooled and re-implanted in a limiting dilution assay at 10, 30, 100 cells/flank into a new cohort of CB.17 SCID mice and allowed to grow with no treatment.

AsPC-1 cells = assay: AsPC-1 pancreatic cancer xenograft tumor growth; assay type: in vivo, CB17.SCID mice
Excerpt: CB17.SCID mice were implanted with AsPC-1 cells (in matrigel+RPMI in a 1:1 ratio).

[4] = test system: CT3 tumor cells (cancer stem cell frequency); assay: CT3 limiting dilution re-implant assay; assay type: in vivo, CB17.Scid mice
Excerpt: The mice were then monitored 2× per week for tumor growth, and tumors allowed to grow with no further treatment.

CT3 tumors = assay: CT3 tumor growth, combination with FolFiri; assay type: in vivo, CB.17 SCID mice; settings: for tumor volume reduction, combination treatment compared to FolFiri regimen: 18G7H6A3 15 mg/kg twice per week in combination with FolFiri
Excerpt: CB.17 SCID mice were implanted with CT3 cells grown under CSC conditions.

PANC1 tumors = assay: PANC1 pancreatic cancer xenograft tumor growth; assay type: in vivo, CB.17 SCID mice
Method: Gemcitabine was administered in assigned group for 3 weeks to inhibit tumor growth. All mice were monitored twice weekly for body weight and tumor size, as well as overall health and appearance.

[5] = test system: Wnt pathway genes (CTNNB1, β-catenin)
[6] = test system: TCF/LEF promoter activation in HEK-293T cells expressing LGR5; assay: TCF-LEF reporter (GFP) assay with Wnt3a plus R-spondins; assay type: cell-based, human; settings: increasing concentrations of soluble antibody; Wnt3a plus RSPO1, RSPO2 or RSPO3
Method: Parental HEK-293T cells and HEK-293T cell stably expressing LGR5 were transduced with a TCF-LEF reporter vector-containing lentivirus (GFP Cignal, QIAGEN) and selected for stable expression of the reporter. Parental and LGR5 expressing stable reporter lines were plated at 25,000/well in a 96 well plate, attached overnight, serum starved and treated with antibodies or vehicle for 6 h, then treated with recombinant human Wnt3a (3 nM) and recombinant human R-spondins for 18 h. Two concentrations for each R-spondins1-3 and one concentration of R-spo4 were tested (100 pM, 300 pM, 1 nM, 3 nM or 10 nM) based on our analysis of the activity of the different R-spondins in activation of the TCF/LEF reporter cell lines. The reporter driven GFP signal was measured on a plate reader. All experiments shown are pooled data from three independent experiments (each experiment performed in duplicate) for each R-spondin tested (data are means+SD).

## 18G7H6A3
[1]; chemotherapy combination, n=7
  mice with complete eradication of their tumor (no measureable tumor detected): Three
[1]; combined with gemcitabine and nab-paclitaxel chemotherapy
  greater tumor growth inhibition compared to chemotherapy alone: 77%
[2]; combination of FOLFIRI and 18G7H6A3
  differentially expressed tumor promoter genes: downregulation of more tumor promoters such as ALDOC, CDH5, ITGA2
[2]; single agent
  differentially expressed tumor promoter genes vs. Vehicle: ANGPT2, AKAP12 and ADM that were downregulated
[3]
  LGR5 expression in tumors (QPCR): reduced to levels comparable to controls
MDA-MB-231-LM3 model; 18G7H6A3 plus paclitaxel
  cancer stem cell frequency by linear regression analysis: reduced cancer stem cell frequency
MDA-MB-231-LM3 model; in combination with paclitaxel
  inhibition in tumor growth compared to paclitaxel alone: minimal additive inhibition in tumor growth
  tumorigenicity of re-implanted cells compared to paclitaxel alone: greatly decreased tumorigenicity
AsPC-1 cells; in combination with gemcitabine (90 mg/kg), day 61 post implantation
  tumor growth inhibition compared to gemcitabine alone: up to 36%
AsPC-1 cells; single agent, 15 mg/kg twice per week ip, day 41 post implantation
  tumor growth inhibition compared to saline and/or control IgG: ≤ 40%
[4]; 18G7H6A3 FOLFIRI combination
  time to progression of re-implanted cells compared to FOLFIRI alone: delayed time to progression
[4]; cells from mice treated in combination with FOLFIRI
  tumorigenicity of re-implanted cells compared to FOLFIRI alone: greatly decreased tumorigenicity
[4]; in combination with FOLFIRI vs FOLFIRI, day 40
  reduction of cancer stem cell frequency by linear regression analysis (factor): 6
CT3 tumors; day 61
  tumor volume reduction, combination treatment compared to FolFiri regimen: about 58%
CT3 tumors; day 65
  tumor volume reduction, combination treatment compared to FolFiri regimen: ~53%
CT3 tumors; day 68
  tumor volume reduction, combination treatment compared to FolFiri regimen: ~45%
CT3 tumors; day 71
  tumor volume reduction, combination treatment compared to FolFiri regimen: ~33%
CT3 tumors; day 75
  tumor volume reduction, combination treatment compared to FolFiri regimen: ~37%
CT3 tumors; in combination with FolFiri
  growth of CT3 tumors, combination compared to FolFiri regimen: reduced growth of CT3 tumors
PANC1 tumors; 15 mg/kg twice per week ip, day 70 post implantation
  tumor growth inhibition, single agent: up to 30%
PANC1 tumors; in combination with gemcitabine, day 80 post implantation
  tumor growth inhibition compared to gemcitabine alone group: up to 52%
[5]; ASPC1 and PANC1 tumors
  Wnt pathway signaling (quantification of Western blot data): significant inhibition of Wnt pathway signaling
[5]; ASPC1 tumors, single agent or in combination with SOC
  phospho-β-catenin (western blot): upregulated pβ-catenin
[6]
  induction of TCF/LEF promoter driven GFP expression by Wnt3a plus RSPO: did not affect the induction of TCF/LEF promoter driven GFP expression
